# Results from the supplement of paper PMC7826260.
# The other results are listed elsewhere or left out. One pool of 16,384 single-stranded DNAs met each Rep nickase domain in vitro for 1 h at 37 °C with 3 µM enzyme; only the middle of the 90-letter strands is printed. A value is the log2 ratio of uncut reads to the pool without enzyme; more negative means more cut, near 0 not cut, and no call is made. Reads are scaled to the total; values above 0 arise when much of the pool is cut.
# Tests used:
# Assay in all cases: uncleaved DNA left, log2 of reads against the no-enzyme library (log2 ratio); higher = less cleavage (more negative = more Rep cleavage of the k-mer); sequences stand for … in CTCGTCCG…ACCGGAGA
# [1] = test system: T1, Rep nickase domain of Muscovy duck circovirus
# T1 sequence (protein, residues 1-111, tag omitted): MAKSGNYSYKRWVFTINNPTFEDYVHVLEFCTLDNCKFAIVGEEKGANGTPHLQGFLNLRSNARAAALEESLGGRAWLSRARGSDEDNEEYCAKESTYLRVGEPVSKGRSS
# Procedure: (§1)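 A pool of 90-nt single-stranded DNAs with seven random bases just before the constant AC of the nick site (name = the seven bases) was cut by 3 µM recombinant His6-SUMO-tagged Rep nickase domain (300 nM DNA, 50 mM HEPES pH 8.0, 50 mM NaCl, 1 mM MnCl2, 1 h, 37 °C, three replicates). Uncut DNA was amplified and sequenced.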
# [2] = test system: T2, Rep nickase domain of banana bunchy top virus
# T2 sequence (protein, residues 1-94, tag omitted): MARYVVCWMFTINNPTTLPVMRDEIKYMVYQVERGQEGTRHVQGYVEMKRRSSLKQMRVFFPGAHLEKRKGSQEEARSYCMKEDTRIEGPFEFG
# Procedure: as §1
# [3] = test system: T3, Rep nickase domain of cabbage leaf curl virus
# T3 sequence (protein, residues 1-116, tag omitted): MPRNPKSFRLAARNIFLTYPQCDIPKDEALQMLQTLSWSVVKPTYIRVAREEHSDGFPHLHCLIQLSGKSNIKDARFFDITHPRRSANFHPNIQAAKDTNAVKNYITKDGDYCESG
# Procedure: as §1
# [4] = test system: T4, Rep nickase domain of chickpea chlorotic dwarf virus
# T4 sequence (protein, residues 1-124, tag omitted): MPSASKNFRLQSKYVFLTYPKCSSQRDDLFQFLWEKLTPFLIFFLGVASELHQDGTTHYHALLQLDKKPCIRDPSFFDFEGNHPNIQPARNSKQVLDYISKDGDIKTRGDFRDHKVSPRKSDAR
# Procedure: as §1
# [5] = test system: T5, Rep nickase domain of faba bean necrotic yellows virus
# T5 sequence (protein, residues 1-98, tag omitted): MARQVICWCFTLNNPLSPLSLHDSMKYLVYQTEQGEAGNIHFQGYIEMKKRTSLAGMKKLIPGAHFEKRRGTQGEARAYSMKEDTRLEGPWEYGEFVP
# Procedure: as §1
# [6] = test system: T6, Rep nickase domain of maize striate mosaic virus
# T6 sequence (protein, residues 1-117, tag omitted): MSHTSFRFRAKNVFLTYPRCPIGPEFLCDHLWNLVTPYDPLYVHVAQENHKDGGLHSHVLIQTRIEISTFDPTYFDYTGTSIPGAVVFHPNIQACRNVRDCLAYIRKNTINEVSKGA
# Procedure: as §1
# [7] = test system: T7, Rep nickase domain of porcine circovirus 2
# T7 sequence (protein, residues 2-116, tag omitted): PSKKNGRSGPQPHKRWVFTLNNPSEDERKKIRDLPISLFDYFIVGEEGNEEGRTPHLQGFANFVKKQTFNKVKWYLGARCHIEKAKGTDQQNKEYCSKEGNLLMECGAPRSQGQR
# Procedure: as §1
# [8] = test system: T8, Rep nickase domain of tomato yellow leaf curl virus
# T8 sequence (protein, residues 1-136, tag omitted): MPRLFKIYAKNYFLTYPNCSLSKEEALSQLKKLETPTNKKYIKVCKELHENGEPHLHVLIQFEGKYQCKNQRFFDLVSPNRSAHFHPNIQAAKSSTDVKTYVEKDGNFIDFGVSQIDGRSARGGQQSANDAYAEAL
# Procedure: as §1
# [9] = test system: T9, Rep nickase domain of wheat dwarf virus
# T9 sequence (protein, residues 1-137, tag omitted): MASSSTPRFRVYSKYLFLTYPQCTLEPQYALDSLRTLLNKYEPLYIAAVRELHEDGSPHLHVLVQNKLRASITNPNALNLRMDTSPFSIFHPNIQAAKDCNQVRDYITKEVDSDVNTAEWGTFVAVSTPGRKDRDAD
# Procedure: as §1
Sequence,uncleaved DNA left (log2) [1],uncleaved DNA left (log2) [2],uncleaved DNA left (log2) [3],uncleaved DNA left (log2) [4],uncleaved DNA left (log2) [5],uncleaved DNA left (log2) [6],uncleaved DNA left (log2) [7],uncleaved DNA left (log2) [8],uncleaved DNA left (log2) [9]
GACTGCT,-0.998,-0.745,-0.296,-0.609,-0.0356,-0.47,-2.94,0.0345,-0.0289
GTTGACC,0.0186,0.109,0.203,0.726,0.00701,0.963,0.193,0.0324,0.0502
AAAGGAT,-0.0486,-0.0384,0.17,1.68,-0.0288,1.78,0.191,-0.204,0.00505
AATGCTG,-0.0474,0.0137,0.307,1.73,-0.00677,1.65,0.103,-0.21,-0.00906
AAACGAG,-0.117,-0.0428,-0.117,-0.0986,0.0226,-0.874,0.0765,-0.0751,0.00762
CAAAACG,0.0365,-0.021,-0.835,-0.26,0.151,-1.02,0.163,0.0269,0.017
AAGCTCG,0.139,0.0493,-0.227,0.0134,0.0145,-0.24,0.222,-0.075,0.14
ACCGTCA,0.00645,-0.0948,-0.22,-0.847,0.000846,-0.779,-0.0694,-0.0705,-0.0305
AGTCCGT,0.0017,-0.0113,-0.021,-0.0843,0.0379,-0.623,-1.31,-0.0804,0.0234
AGCATTA,0.0643,0.0932,-0.0955,-0.522,0.0372,-0.307,-1.11,-0.0512,0.0681
TATCTAC,-0.0228,-0.0559,-0.0105,-1.58,-0.0727,-0.12,-0.185,0.0362,-0.0367
AGAAGTG,0.242,0.12,-0.195,-0.227,0.00466,-0.608,0.212,0.0447,0.149
TCAGTTT,-0.102,-0.235,-0.205,-2.07,-0.181,-0.153,-0.304,-0.306,-0.238
AGCCGAT,0.0674,0.00765,0.105,0.649,-0.0293,0.959,0.012,-0.0798,-0.0109
ACAATTT,0.00529,-0.0391,-0.365,-2.92,-0.122,-1.05,-0.134,-0.22,-0.0691
ATTGGAA,0.00496,-0.0316,0.193,1.01,-0.0209,1.01,-0.000531,-0.162,-0.0589
CGCCGGT,0.0287,-0.00717,0.281,0.352,0.103,0.499,0.168,0.0534,-0.0242
CAATAGT,-3.79,-1.22,-4.15,-3.34,-0.11,-3.73,-4.41,-0.616,-3.52
GTTGGGC,0.0707,0.149,0.547,1.14,0.0197,1.28,0.267,0.0805,0.0847
AATTCGT,-1.5,-0.709,-0.876,-1.42,-0.0375,-1.33,-3.68,-0.0505,-0.177
ACTAAAC,0.0575,0.0921,-0.152,-0.361,0.0562,-0.695,0.135,-0.138,0.00595
CCCAGTG,0.0573,0.0655,-0.551,-0.375,0.118,-1.12,0.107,0.114,-0.134
GCAGCCC,-0.0359,-0.0928,0.0961,0.222,0.00161,-0.0573,0.168,0.0481,0.152
TGGGTAA,-0.0174,0.058,0.663,1.4,0.0781,1.83,0.132,0.0717,0.149
CAAACGG,-0.0943,0.0671,0.458,1.39,-0.0195,1.34,0.107,-0.0663,0.153
CCCAGTC,-0.0447,-0.145,-0.0779,-0.266,-0.0479,-1.01,-0.006,0.0161,-0.152
AGTCTTC,0.0204,-0.0945,0.0876,0.199,0.00151,-0.293,-0.493,-0.00117,-0.00551
TTCTGAG,0.128,0.167,0.124,0.201,0.208,-0.518,0.226,0.205,0.222
CGTCGCG,0.0214,-0.0223,-0.611,0.0872,0.148,-0.652,0.171,0.0523,-0.0358
GCCAGTC,0.0296,0.0469,0.0867,0.214,-0.187,-0.185,0.142,-0.022,-0.0753
